Among the data in a protein production outcome set (Wang et al. 2014) are protein production values, retold here.

The data set in a line: label from the status in PepcDB records.

With “AGGHKNLPAKGDLHIPVFENVNVRFSPDTYPDNYNEADGTGVYHLVNGRIILKKITLPEYKRNVSVSLKVTLASNGDRWDKSGSCFVLPKSSAINLLTIARDGMKFPSVDSLKLEKMVGIVPGKDYLPTVELMRFMTPFGIGHYSNNNDSLSSKRRPVYIPKWESNVTWQQDITDLYPLLEGEAYVGIYIDTWTSEGYLVNADIDVKESRLACDVLPKRHVEPLMNTVYYMGQSYPDIFARRDVSTDFTVPKGAKNIRLKYIVTGHGGHSGGDEFVQKRNIISVDGKEVLNFIPWRDDCASFRRFNPATGVWLIKRLASYIGEKGYTEKEVEEPLASSDLSRSNWCPGSDVVPEEAVIGTLAPGKHTFTVSIPEAQAVDGNKLNHWLVSAYLVWEE”, the protein production entry is “not failed”.
“MLALEAAQLDGPHFSCLYPDGVFYDLDSCKHSSYPDSEGAPDSLWDWTVAPPVPATPYEAFDPAAAAFSHPQAAQLCYEPPTYSPAGNLELAPSLEAPGPGLPAYPTENFASQTLVPPAYAPYPSPVLSEEEDLPLDSPALEVSDSESDEALVAGPEGKGSEAGTRKKLRLYQFLLGLLTRGDMRECVWWVEPGAGVFQFSSKHKELLARRWGQQKGNRKRMTYQKLARALRNYAKTGEIRKVKRKLTYQFDSALLPAVRRA”: the protein production entry is listed as “not failed”.
For “MPQNDYIELHRKRYGYRFDHFEKERKKEARKVHKDSLKAKKLRGIKAKIYNKKKYTEKVNLKKTLKSHELKDIKSTETLKDDNGLPSYLLDRQQTKHTQILTNLIKQKRKSKCGKWQLPIPKIQALNEAEMLRVVKSGKRRRKTWKRLIDKISFVGNDFTRKNPKFERYIRPSSLRFKKANVYHSELKSTFSLDIISVKVNPQSNLYTNLGIITKGTIIEVNVSELGLVTQSGKVIWAKFAQVTNNPELDGCINATLLV” the value was “failed”; for “MGLRNLLDKVEHHFEKGGRYEKWYPLYEAVDTFLYRPGSVTRTTAHVRDGIDLKRMMIIVWLCTFPAMFFGMYNVGHQANLIFAQSPDLLSAQDGWRFALIGALAGFDPNSLWDCLVQGAAYFLPVYLTTFIVGGFWEVLFASIRRHEVNEGFFVTSVLFALTLPPSVPLWQVALGISFGVVLGKEVFGGTGKNFLNPALVGRAFLFFAYPAQMSGDAVWTSVDGFAGATSLSLAAAGGVDNILGHGLTWMDAFLGHMQGSMGETSTLAIFIGGAVLLLTRIASWRIVAGVMLGMVAMSYLFNAIGSASNPMFAMPWYWHLVTGGFAFGMIFMATDPVSASMTDTGKWLFGALIGVMVMLIRVVNPAFPEGMMLAILFANLFAPLIDHFVVQANIKRRLARNG”, “failed”; for “MKVKVFRVHGYFEKNGRKFKFTKEYRGIKEEDVKELVYSDIGSKHKVKRNKIFIKEIKEIRPEEAEDIVVRRLSLELLEHHHHHH”, “failed”.
